Assay results as given in the RNAGym collection of RNA variant scans (doi:10.7554/elife.90254).
The source gives no read counts; variants with many changes may rest on few reads.

B1: LINE1-full (parent)
chain: UACGUAGGUGGUUUUCCCCUGAUAGUGCUAAGGGGGCCUGGAAGUUUGGACUGGGCAGAGCUCAACACAGCGUGGCAAAGUGGCUGUGGCUAGACUGCCUCUCUGGAUUCCUCGUCACUCAGCAGGGCAUCUCUGAGAGAAAUGCC

Variants of: B1
Test: self-cleavage, relative activity (ratio to wild type); higher = more cleavage; in vitro, sequencing; the parent is a self-cleaving ribozyme

Variant	self-cleavage
A92G A117U U130C	0.14
G97A A107U U134C	0.07
A117C U132C U143C	1.02
U100A U130C A138G	1.08
U104C A121U A141G	1.49
U119C A136G A140G	1.69
U96A U115C G127A	0.05
U96C U132C A140G A142G	0
U96C U134C C146A	0.4
U112A U119A A124G	0
G105A A124U U132C	1.71
C101U U119C A140U	1.36
U112C U119C C123G A142G C145G	1.96
C95U C111U A129G U132C	0.16
G97A U102A A140G G144A	0.15
U108A C123U A138C	1.32
U96A A121G A142G	0.09
C98A A121G A142G	0.07
U100C U109G A140G	1.15
A94G U112A A140G	0.41
U109A U132C U134A	0.42
U119C C123U A142G	1.37

Variant	self-cleavage
A124G U134C A141G	1.23
C123U A140U A141G	1.7
U104A U109C A121G A124G	0
A92G A94G G139A	0
U100C U104C A141G	2.3
U104C G105U U115C U119C	2.42
U112C A129U A136U	1.79
A129U U130C A141G	1.79
C113U A117C A142G	1.11
C118A U132C A141G	1.39
A117C A121U U132C	2.21
U96A A107G A141G	0.17
U109A U115C G122U	1.35
A92U U115C A136G	1.11
U109C U112C A117G	1.44
U102A U119A A138G	2.07
U96A U102A A138U A142G	0.01
U109C A138G A142G	1.84
A94G U96C G114C	0.08
U100C A117U A121U	1.95
G106A G122A G135A	1.22
C101A G127C U132A A136G G144A	0

Variant	self-cleavage
U96A A117G G137A	0.21
U109A A117G A138G	0.88
U102C A124U A142G	0.79
U104A U115A A136G	1.85
U119C A124G A140G	0.62
G127C A129U U130C	0.28
A117G C118A A136G A142C	1.38
A121U U132C A138G C145U	1.37
U119C G122A A124G	1.41
U119A A121U U132C	1.78
A94G U102C A140G	0
U96A A107G U112C G127A	0
U112A A124G U143C	2.52
U115C U132C U143A	2.3
C111U C118U A141G	1.5
A94U U96C U104A A141G	0
A94G U109A A129G U134C	0.34
U115A A124U U143A	1.6
U100C U112C A140G	2.33
U96C U102C A124U	0.11
A92G A107G A121U	0.22
U96C U104C G126A	0.1

Variant	self-cleavage
U134C A142G U143C	1.66
C101U U112C A142G	2.04
A129U A138G A140G	1.25
A94G A129U A138G	0.19
A121G A141G U143C	2.55
U132C U134A A138G	1.04
U119C A140U A142G	1.38
G93U A121U A138U	0.09
U96A C133U A141G	0.11
A92G U100A A117U	0.12
U104C G105C U132A	1.23
U96C U102C C123U A136G	0.06
A107C A136G U143A	0.71
C120U A136G A142G	1.91
U104A U109C U134A A142G	1.91
A94G U102C A124U	0.39
U100C U109C U119C	0
C120U U130C C145U	1.7
U112A A124C A140G	1.92
U96G A117G U134C	0
A121G A124U U132C U143C	1.78
A94U U134C A140G	0.31

Variant	self-cleavage
A92G U130C A138U	0.19
U108C A138G A141G	0.15
A94U U104C A124G	0.21
A92G U108A A117G	0
U119A A136U A142G	1.51
A129G A141U A142G	1.5
U108C A124G U143C	2.83
A117U G137A U143C	1.14
U130C U132C A141G	1.56
A94G A117G G122U	0.16
G93U U108C U119C	0
U100A U109C G125U	0.88
U109C U132C U143A	1.33
C118U U132C A138U	0.9
A124U A138G A142U	1.58
A94G U96C U112C	0
G114U A136G A142G	1.49
A138G A140U A142U	1.86
A92C U119A A129G	0.18
U104C G105U U115C	2.15
U119A A142G U143C	1.62
A107G G114A A124U G126A	0.9

Variant	self-cleavage
U96C U109C A138G	0.2
A117G A129G U130C	0.77
U119C A138G U143C	2
A124C U134C A142G	2.45
U115A A138G U143C	0.97
U96G U104A A142G	0.09
A124U U143G C145U	0.88
C113A U119C A138G	1.56
A94G U100C U134C	0
U112A U132A A136U	1.68
U104A U112C G126A U134G U143A	1.56
U130A A138G C146U	1.28
U108C U115C A138G	1.97
U100C A107G A136G A141G	1.58
A94G U112C G135A	0.17
U96C U100C U109A U134C	0.23
U119C A124G U132A	1.09
C113U U130C U143C	2.1
U96C U102C C146G	0.1
U104G A142G U143A	1.87
G97A U115A A124G	0.04
U112C G126A A142G	1.53
